This note sets out measurements from the supplement of paper PMC7826260.

The list shows a part of the results. One pool of 16,384 single-stranded DNAs met each Rep nickase domain in vitro for 1 h at 37 °C with 3 µM enzyme; only the middle of the 90-letter strands is printed. Values are log2 of uncut reads against the no-enzyme pool; uncut sequences lie near 0, cut ones below; no hit call is given. Because reads are shares of a total, they shift together, so uncut sequences can rise above 0 when many others are cut.

One assay relates to T1, Rep nickase domain of porcine circovirus 2.
T1 sequence (residues 2-116 of Rep, tag left off): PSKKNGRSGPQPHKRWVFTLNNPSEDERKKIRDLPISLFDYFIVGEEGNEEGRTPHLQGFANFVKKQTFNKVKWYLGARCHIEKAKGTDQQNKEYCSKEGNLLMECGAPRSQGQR
Briefly: uncleaved DNA left, log2 of reads against the no-enzyme library (log2 ratio); higher = less cleavage (more negative = more Rep cleavage of the k-mer); sequences stand for … in CTCGTCCG…ACCGGAGA
The protocol:
(§1)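 A pool of 90-nt single-stranded DNAs with seven random bases just before the constant AC of the nick site (name = the seven bases) was cut by 3 µM recombinant His6-SUMO-tagged Rep nickase domain (300 nM DNA, 50 mM HEPES pH 8.0, 50 mM NaCl, 1 mM MnCl2, 1 h, 37 °C, three replicates). Uncut DNA was amplified and sequenced.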
Consider CCGCCTC, for which the “uncleaved DNA left (log2)” value is -0.0244.

Regarding GTCCGCT, the “uncleaved DNA left (log2)” value was -0.0118.

With AATTCCG, the “uncleaved DNA left (log2)” value came to 0.0247.

For GATAAAG, the “uncleaved DNA left (log2)” value turned out to be 0.206.

CTCCGCA: the “uncleaved DNA left (log2)” value was found to be 0.136.

With GCTCAAG, the “uncleaved DNA left (log2)” value worked out at 0.224.

On to GCCGATA, for which the “uncleaved DNA left (log2)” value was 0.167.

As to AATCTTT, the “uncleaved DNA left (log2)” value was -3.19.

Take AGTCCCC: the “uncleaved DNA left (log2)” value was -0.788.

Take TGTTTCG: the “uncleaved DNA left (log2)” value was -0.0231.

Regarding CAAGCTA, the “uncleaved DNA left (log2)” value is -0.0192.

For CTGATAT, the “uncleaved DNA left (log2)” value stood at 0.0361.

With CCTTTTC, the “uncleaved DNA left (log2)” value was -0.0759.

In the case of CGATCGA, the “uncleaved DNA left (log2)” value was 0.0429.

For CGGTATT, the “uncleaved DNA left (log2)” value is -3.04.

GGTCTGT: the “uncleaved DNA left (log2)” value came out at 0.0112.

CAGTATA: the “uncleaved DNA left (log2)” value is -3.06.

In the case of AAGTTGG, the “uncleaved DNA left (log2)” value is -0.0917.

As for GGATGGC, the “uncleaved DNA left (log2)” value worked out at 0.254.

In the case of TGATTTA, the “uncleaved DNA left (log2)” value was -0.321.

Take AAGATAA: the “uncleaved DNA left (log2)” value is -0.179.

Consider TGCCGGG, for which the “uncleaved DNA left (log2)” value was 0.213.

CTTCGGC: the “uncleaved DNA left (log2)” value came out at 0.23.

Turning to AGCCCGA, the “uncleaved DNA left (log2)” value came out at 0.0752.

On to AATTAAG, for which the “uncleaved DNA left (log2)” value was 0.137.

Consider CGGCCGA, for which the “uncleaved DNA left (log2)” value was 0.173.

Take GAAACCC: the “uncleaved DNA left (log2)” value was -0.447.

Take GACAGCT: the “uncleaved DNA left (log2)” value is -0.194.

With GTTCAAA, the “uncleaved DNA left (log2)” value worked out at 0.0848.

Turning to CACTACA, the “uncleaved DNA left (log2)” value is -2.24.

TCCATCC: the “uncleaved DNA left (log2)” value is -0.000621.

Turning to GTGCGAG, the “uncleaved DNA left (log2)” value stood at 0.295.

On to CTGTCAA, for which the “uncleaved DNA left (log2)” value is 0.00597.

CGAATTA: the “uncleaved DNA left (log2)” value is -0.126.

For the sequence CTGAAAC, the “uncleaved DNA left (log2)” value came out at 0.0965.

For the sequence GCGAACT, the “uncleaved DNA left (log2)” value is -0.121.

TGGTGGT: the “uncleaved DNA left (log2)” value was -1.84.

Turning to TGCGTAT, the “uncleaved DNA left (log2)” value is -0.203.

Turning to ATCTCCC, the “uncleaved DNA left (log2)” value is -0.243.

As for ATCTGCG, the “uncleaved DNA left (log2)” value was 0.0481.

Another assay deals with T2, Rep nickase domain of tomato golden mosaic virus.
T2 sequence (residues 1-124 of Rep, tag left off): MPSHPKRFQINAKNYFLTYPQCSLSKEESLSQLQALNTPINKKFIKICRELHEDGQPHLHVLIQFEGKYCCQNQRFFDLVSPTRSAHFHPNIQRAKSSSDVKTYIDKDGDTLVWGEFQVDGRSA
The assay is described as above. The protocol: as §1
Consider CCGCCTC, for which the “uncleaved DNA left (log2)” value is -0.199.

In the case of GTCCGCT, the “uncleaved DNA left (log2)” value is -0.0103.

With AATTCCG, the “uncleaved DNA left (log2)” value was -0.165.

For GATAAAG, the “uncleaved DNA left (log2)” value amounted to 0.128.

Regarding CTCCGCA, the “uncleaved DNA left (log2)” value was 0.0087.

As to GCTCAAG, the “uncleaved DNA left (log2)” value came out at 0.0511.

For GCCGATA, the “uncleaved DNA left (log2)” value came to 0.128.

Consider AATCTTT, for which the “uncleaved DNA left (log2)” value turned out to be 0.028.

Consider AGTCCCC, for which the “uncleaved DNA left (log2)” value is 0.00928.

In the case of TGTTTCG, the “uncleaved DNA left (log2)” value was -0.152.

Take CAAGCTA: the “uncleaved DNA left (log2)” value is -0.122.

As for CTGATAT, the “uncleaved DNA left (log2)” value was determined as 0.0152.

As for CCTTTTC, the “uncleaved DNA left (log2)” value was -0.148.

For CGATCGA, the “uncleaved DNA left (log2)” value was -0.0422.

Consider CGGTATT, for which the “uncleaved DNA left (log2)” value is -0.337.

As to GGTCTGT, the “uncleaved DNA left (log2)” value was -0.0522.

For the sequence CAGTATA, the “uncleaved DNA left (log2)” value was -0.0943.

AAGTTGG: the “uncleaved DNA left (log2)” value was 0.0104.

Take GGATGGC: the “uncleaved DNA left (log2)” value came to 0.128.

In the case of TGATTTA, the “uncleaved DNA left (log2)” value was -0.0637.

Regarding AAGATAA, the “uncleaved DNA left (log2)” value was 0.126.

As to TGCCGGG, the “uncleaved DNA left (log2)” value was 0.0707.

Regarding CTTCGGC, the “uncleaved DNA left (log2)” value was 0.096.

Consider AGCCCGA, for which the “uncleaved DNA left (log2)” value was -0.0693.

Take AATTAAG: the “uncleaved DNA left (log2)” value stood at 0.0993.

For the sequence CGGCCGA, the “uncleaved DNA left (log2)” value was determined as 0.0363.

With GAAACCC, the “uncleaved DNA left (log2)” value was -0.0361.

Regarding GACAGCT, the “uncleaved DNA left (log2)” value was found to be 0.0064.

Consider GTTCAAA, for which the “uncleaved DNA left (log2)” value amounted to 0.174.

CACTACA: the “uncleaved DNA left (log2)” value is -0.157.

Turning to TCCATCC, the “uncleaved DNA left (log2)” value turned out to be 0.0399.

As to GTGCGAG, the “uncleaved DNA left (log2)” value turned out to be 0.0608.

CTGTCAA: the “uncleaved DNA left (log2)” value is -0.107.

In the case of CGAATTA, the “uncleaved DNA left (log2)” value is 0.0142.

Consider CTGAAAC, for which the “uncleaved DNA left (log2)” value amounted to 0.101.

Take GCGAACT: the “uncleaved DNA left (log2)” value is -0.156.

In the case of TGGTGGT, the “uncleaved DNA left (log2)” value is -0.0838.

Turning to TGCGTAT, the “uncleaved DNA left (log2)” value was -0.18.

For ATCTCCC, the “uncleaved DNA left (log2)” value was -0.00786.

As for ATCTGCG, the “uncleaved DNA left (log2)” value was -0.114.

The subject of the next assay is T3, Rep nickase domain of tomato yellow leaf curl virus.
T3 sequence (residues 1-136 of Rep, tag left off): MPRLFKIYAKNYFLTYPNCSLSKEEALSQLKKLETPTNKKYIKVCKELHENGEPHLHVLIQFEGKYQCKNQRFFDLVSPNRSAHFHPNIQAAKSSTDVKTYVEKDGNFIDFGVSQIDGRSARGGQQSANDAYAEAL
The assay is described as above. The protocol:
as §1
For the sequence CCGCCTC, the “uncleaved DNA left (log2)” value is -0.243.

For the sequence GTCCGCT, the “uncleaved DNA left (log2)” value was 0.0112.

Take AATTCCG: the “uncleaved DNA left (log2)” value is -0.00472.

With GATAAAG, the “uncleaved DNA left (log2)” value stood at 0.0899.

Regarding CTCCGCA, the “uncleaved DNA left (log2)” value turned out to be 0.0948.

With GCTCAAG, the “uncleaved DNA left (log2)” value turned out to be 0.0713.

In the case of GCCGATA, the “uncleaved DNA left (log2)” value amounted to 0.0706.

Consider AATCTTT, for which the “uncleaved DNA left (log2)” value came to 0.0413.

For the sequence AGTCCCC, the “uncleaved DNA left (log2)” value turned out to be 0.00704.

On to TGTTTCG, for which the “uncleaved DNA left (log2)” value was -0.0281.

On to CAAGCTA, for which the “uncleaved DNA left (log2)” value is -0.31.

CTGATAT: the “uncleaved DNA left (log2)” value is -0.0195.

Turning to CCTTTTC, the “uncleaved DNA left (log2)” value was -0.13.

In the case of CGATCGA, the “uncleaved DNA left (log2)” value was -0.21.

Take CGGTATT: the “uncleaved DNA left (log2)” value was -0.0968.

In the case of GGTCTGT, the “uncleaved DNA left (log2)” value was found to be 0.0202.

On to CAGTATA, for which the “uncleaved DNA left (log2)” value is -0.0548.

For AAGTTGG, the “uncleaved DNA left (log2)” value came to 0.0628.

Turning to GGATGGC, the “uncleaved DNA left (log2)” value was 0.04.

Consider TGATTTA, for which the “uncleaved DNA left (log2)” value is -0.00755.

For the sequence AAGATAA, the “uncleaved DNA left (log2)” value is 0.00888.

For the sequence TGCCGGG, the “uncleaved DNA left (log2)” value amounted to 0.0252.

With CTTCGGC, the “uncleaved DNA left (log2)” value is -0.026.

Turning to AGCCCGA, the “uncleaved DNA left (log2)” value is -0.119.

Consider AATTAAG, for which the “uncleaved DNA left (log2)” value was determined as 0.0383.

Turning to CGGCCGA, the “uncleaved DNA left (log2)” value was 0.149.

In the case of GAAACCC, the “uncleaved DNA left (log2)” value was -0.00742.

In the case of GACAGCT, the “uncleaved DNA left (log2)” value is -0.0224.

Regarding GTTCAAA, the “uncleaved DNA left (log2)” value stood at 0.0809.

On to CACTACA, for which the “uncleaved DNA left (log2)” value was -0.038.

For TCCATCC, the “uncleaved DNA left (log2)” value was -0.0143.

For GTGCGAG, the “uncleaved DNA left (log2)” value came to 0.203.

Regarding CTGTCAA, the “uncleaved DNA left (log2)” value was -0.0269.

With CGAATTA, the “uncleaved DNA left (log2)” value is -0.0519.

As to CTGAAAC, the “uncleaved DNA left (log2)” value is 0.0469.

Turning to GCGAACT, the “uncleaved DNA left (log2)” value was -0.0565.

With TGGTGGT, the “uncleaved DNA left (log2)” value was -0.0631.

In the case of TGCGTAT, the “uncleaved DNA left (log2)” value is -0.172.

With ATCTCCC, the “uncleaved DNA left (log2)” value was -0.159.

As to ATCTGCG, the “uncleaved DNA left (log2)” value is -0.249.
